Measurements published in PubChem BioAssay AID1963576 (National Center for Advancing Translational Sciences (NCATS), 2024).
Screen size: about 46,000 compounds; about 60 (0.1%) were called active. Another 3% or so got no clear call; they are omitted. Calls come from the whole dose curve; as a rule, active = well fitted inhibition curve with a large enough effect; inconclusive = small, poorly fitted or top-dose-only effect; inactive = no such curve, though single readings can be large or run the other way. Some of the results follow.

Assay: Primary qHTS assay for Inhibitors of ovarian cancer metastasis using an organotypic tumor microenvironment (TME) model.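 For activity change, negative = inhibition: plate controls were DMSO wells for no effect and tomatine positive control wells for full effect.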 Note: nearly all actives have a fitted effect of over 65% in size.
Conditions: SKOV3ip1-GFP adhesion/invasion on 3D omental model, fluorescence; series mostly up to 45.8 µM; activity change, negative = inhibition: at the top concentration
Procedure, shortened: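 qHTS, 4-pt dose (0.36-46 umol/L); SKOV3ip1-GFP, 1,200 cells/well, no FBS; primary omental fibroblast/mesothelial co-culture 48 h pre-grown; 2 h RT + 16 h 37 C; PBS wash, 4% PFA; GFP count 488/509 nm.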

outcome, inactive:
O=C(Nc1ccc(Cl)cc1Cl)c1cc(S(=O)(=O)N2CCC3(CC2)OCCO3)ccc1F
CCN(CCCNC(=O)CSc1cc(=O)n(C)c2ccccc12)c1ccccc1
O=C(NCc1cccc(F)c1)C1CCN(c2nc3ccccc3nc2C(F)(F)F)CC1
CC(=O)N1CCc2c(sc3c2c(=O)n(-c2ccccc2)c(=O)n3CC(=O)c2ccc(Cl)cc2)C1
CC(C)(C)C(=O)Nc1cc(-c2cccc(Br)c2)nn1-c1ccccc1
COc1ccc(NC(=O)c2cc(S(=O)(=O)N3CCOCC3)cn2C)cc1Cl
Cc1cccc(C)c1OCc1cc(=O)n2c(-c3ccccc3)csc2n1
Cn1nc(-c2ccc(OCC(=O)Nc3cccc(C(F)(F)F)c3)cc2)c2ccccc2c1=O
CC(C)c1ccc2oc(-c3ccc(Cl)c(NC(=O)c4cccs4)c3)nc2c1
O=C1CS(=O)(=O)C2(C(=O)Nc3ccccc32)N1c1cccc(Cl)c1 (centres undefined)
Cc1ccc(Sc2c(C)nn(C(=O)COc3ccccc3)c2C)cc1
COc1ccc(-c2nc(Cn3c(SCc4cccc(Cl)c4)nc4ccncc43)c(C)o2)cc1
COc1ccc(S(=O)(=O)NCCc2csc3nc(-c4ccc(Cl)cc4)nn23)cc1C
CC(=O)Nc1ccccc1OCc1cc(=O)n2c3c(sc2n1)CCCC3
Cc1ccc(Cn2nc(C)c(NC(=O)c3cc(-c4ccc(F)cc4)on3)c2C)cc1
O=C(CN1CCN(Cc2ccc(F)cc2Cl)S1(=O)=O)Nc1ccc(F)cc1
Cc1cccc(-n2c(-c3ccco3)nc3c(cnn3-c3ccccc3C)c2=O)c1
Cc1cccc(OCC(=O)NCC2(N3CCN(C)CC3)CCCCC2)c1C
CCc1ccc(S(=O)(=O)c2nnn(-c3ccc(F)cc3)c2N)cc1
Cc1ccc(NC(=O)c2ccc3snnc3c2)cc1Cl
COc1ccc(-c2ccnc3[nH]n(-c4ccccc4)c(=O)c23)cc1
CCOC(=O)c1ccc(N2CCN(c3ccc(F)cc3)CC2)c(NC(=O)Nc2cccc(OC)c2)c1
CCCCN(CCCC)CCNC(=O)c1cn(CC)c2ccc(S(=O)(=O)N3CCc4ccccc4C3)cc2c1=O
CCOC(=O)c1cccc(NC(=O)CCc2c(C)nn(-c3ccc(N4CCCC4)nn3)c2C)c1
CCC1CN(C(=O)C2CCN(S(=O)(=O)c3c(C)noc3/C=C/c3ccccc3F)CC2)c2cc(Cl)ccc2O1 (centres undefined)
CCOC(=O)Cn1nc(-c2ccccc2)c2cnc3ccc(OCC)cc3c21
Cc1cccc(C(=O)Nc2ccc(C(=O)OCc3cc(=O)n4nc(C5CC5)sc4n3)cc2)c1
Cc1ccc(N2C(=O)NC(NS(=O)(=O)c3ccc(Cl)cc3)(C(F)(F)F)C2=O)cc1C (centres undefined)
O=C(c1ccco1)n1nc(-c2ccc(Cl)cc2)nc1NCc1ccccc1
CSc1ccc(CCNC(=O)Cn2ncc3c(=O)oc4ccccc4c32)cc1
Cc1ccc(NC(=O)C2CCCN2S(=O)(=O)c2ccc3nc(-c4ccccc4)[nH]c3c2)cc1F (centres undefined)
COCCNC(=O)CSc1cn(CC(=O)N2CCCCCC2)c2ccccc12

Activity change, negative = inhibition, inactive:
CCOc1cccc(NC(=O)C2CC(=O)N(C)C(=Nc3cccc(OC)c3)S2)c1 (centres undefined) 2.98%
COCCNC(=O)CCn1c(=O)c2cc(OC)c(OC)cc2n(CC(=O)Nc2ccc(F)c(Cl)c2)c1=O 0.841%
NC(=O)c1ccc(N(C(N)=O)c2c(F)cccc2F)nc1-c1ccc(F)cc1F 6.85%
COc1ccccc1NC(=O)C(Cc1ccccc1)NS(=O)(=O)c1ccc2c(c1)CCN2C(C)=O (centres undefined) 0.907%
O=C(O)c1ccc(Nc2nc3ccccc3c3nncn23)cc1 8.36%
CC(=O)N1CCOc2cc(S(=O)(=O)NCc3ccccc3Cl)c(C)cc21 11%
Cc1cc(C)c(NC(=O)Cn2c(=O)n(-c3cccc(C(F)(F)F)c3)c(=O)c3c(C)c(C)sc32)c(C)c1 -5.02%
COc1ccc(-c2cc3nc(N)cc(=O)n3[nH]2)cc1 20.8%
CCC(=O)N1c2ccccc2CC1C(=O)NCCCN1CCN(c2cc(C)ccc2C)CC1 (centres undefined) 4.28%
CCN(C(=O)c1ccc2c(c1)N(Cc1cccc(Cl)c1)C(=O)c1ccccc1S2=O)c1ccccc1 (centres undefined) -6.61%
CC(=O)Oc1ccccc1C(=O)Nc1ncc([N+](=O)[O-])s1 17.3% [at 92.2 µM]
CCOC(=O)c1ccc(NC(=O)CSc2nc3ncc(Br)c(C)c3[nH]2)cc1 -3.11%
COCCCNC(=O)c1ccc(Cn2c(=O)c3ccccc3n(CC(N)=O)c2=O)cc1 -4.44%
Cc1ccc(C(=O)Nc2ccc(F)cc2)cc1S(=O)(=O)N1CCCCCC1 -17.7%
Cc1ccc(C)c(CSc2nc3c([nH]c4ccccc43)c(=O)n2C)c1 5.49%
O=C(NCCCc1nc2ccccc2n1Cc1ccc(F)cc1)C1CCCCC1 -0.314%
CCOc1ccc(NC(=O)CCCc2nc(-c3cccc(OC)c3)no2)cc1 -7.24%
COc1cccc2c1cc1c(=O)n(CC(=O)N3CCN(c4ccccc4F)CC3)nc(C)n12 18%
Cc1ccc(CNC(=O)c2sc3nc(C)cc(C)c3c2-n2cccc2)cc1 -12.5%
CC1=C(c2ccc(F)cc2)S(=O)(=O)N=C1N1CCC(C(=O)NCCc2ccco2)CC1 -1.91%
Cn1cnc(S(=O)(=O)N2CCC(C(=O)NCc3ccccc3)CC2)c1 -0.151%
CS(=O)(=O)N1CCc2cc(S(=O)(=O)NCc3ccccc3Cl)ccc21 -19.3%
COc1ccc2[nH]c(=O)c(CN(C(=O)c3cccc(Cl)c3)c3ccccc3OC)cc2c1 -21.3%
Cn1c2ccccc2c2cnn(CC(=O)NCc3ccc(Cl)cc3)c(=O)c21 1.11%
Cc1ccc(NC(=O)Cn2c(C)cc(C)c(C#N)c2=O)cc1 18%
CCOc1ccc(NC(=O)Cn2c(=O)oc3cc(S(=O)(=O)NC4CCCC4)ccc32)cc1 -1.92%
Cc1ccc(C(c2sc3nc(-c4ccco4)nn3c2O)N2CCOCC2)cc1 (centres undefined) 16.2%
COc1ccccc1NC(=O)CSc1nc2ccccc2c(=O)n1CCC(=O)NC1CCCCC1 -1.65%
COC(=O)c1cc2c(cc1NC(=O)c1c(C)nn(-c3ccc(C)cc3)c1-n1cccc1)OCO2 -2.57%
COc1cc(NC(=O)Cn2ccn(Cc3ccccc3OC)c(=O)c2=O)cc(OC)c1 2.24%
CCOC(=O)c1c(S(=O)(=O)N2CCCC(C(=O)N(C)Cc3ccccc3)C2)c(C)n(C)c1C (centres undefined) 13.6%
Cc1ccccc1NC(=O)C1CCC(CNS(=O)(=O)c2ccc3c(c2)C(C)(C)C(=O)N3C)CC1 (centres undefined) 3.63%
Cc1cc(NS(=O)(=O)c2ccc(NC(=O)c3ccccc3F)cc2)nc(C)n1 0.627%
Cc1ccc(-n2ncc3c(N(C)Cc4ccccc4)ncnc32)cc1 -4.28%
CCOc1ccc(CCNC(=O)c2cn(C)c3ccc(S(=O)(=O)N4CCOCC4)cc3c2=O)cc1OCC -0.11%
C=C(C)Cn1c(SCC(=O)Nc2cc(C)ccc2C)nc2sc3c(c2c1=O)CCCC3 4.08%
CCCNC(=O)C(=O)NCC(c1ccc2c(c1)OCO2)N1CCOCC1 (centres undefined) -1.93%
COc1ccc(OCc2ccc(-c3nc(C#N)c(N4CCC(C)CC4)o3)o2)cc1 -3.58%
COc1ccccc1N1CCN(S(=O)(=O)c2ccc3[nH]c4c(c3c2)CCCC4)CC1 3.23%
CCC(=O)N1CCc2cc(Br)cc(S(=O)(=O)CCC(=O)N3CCN(c4ccccc4OC)CC3)c21 4.2%
Cc1ccc(-n2ncc(C(=O)N3CCCCC3)c2C2CCN(C(=O)OC(C)(C)C)CC2)cc1C -7.77%
COc1ccc(C(=O)N2CC(=O)Nc3ccc(C)cc3C2c2ccccc2)c(OC)c1 (centres undefined) -25.1%
CCc1ccc(NC(=O)C2CCCN(S(=O)(=O)c3ccc4c(c3)CCCN4C(C)=O)C2)cc1 (centres undefined) 4.13%
CCOc1cc(-c2nnc(SCC(=O)NCc3ccccc3)nc2-c2ccc(OC)c(OCC)c2)ccc1OC 0.736%
CCCN(CCC)CCNC(=O)CN1C(=O)COc2ccc(S(=O)(=O)N3CCC(C)CC3)cc21 16.2%
Cc1ccc(OCC(=O)NCC2(N3CCOCC3)CCCCC2)cc1C -22.9%
Cc1ccc(-c2nc3ccccc3s2)cc1NC(=O)COc1ccccc1 -9.84%
COc1ccc(N(Cc2cccs2)C(=O)c2ccc(Br)o2)cc1 -4.97%
O=C(CN(CCc1ccccc1)S(=O)(=O)c1ccc(Br)cc1)NCc1ccc(Cl)cc1 -4.85%
CCOC(=O)CSc1nc2c([nH]c3ccccc32)c(=O)n1-c1ccc(OC)cc1 25.5%
Cc1oc(-c2cccc(Cl)c2)nc1CN1CCC(C(=O)NCCCN2CCN(c3ccccc3F)CC2)CC1 0.226%
Cc1ccc2c(=O)cc(C(=O)Nc3ccc(S(=O)(=O)Nc4nc(C)cc(C)n4)cc3)oc2c1 -21.8%
CCc1ccc(NC(=O)CSC2=Nc3ccccc3C3=NC(CC(=O)NC4CCCCC4)C(=O)N23)cc1 (centres undefined) -5.31%
O=C(C1CCN(c2ncnc3c2nc2n3CCCCC2)CC1)N1CCN(c2ccc(F)cc2)CC1 7.15%
CCOc1cc(C2C(C(=O)Nc3ccc(OC)cc3)=C(C)Nc3nc(SC)nn32)ccc1O (centres undefined) -15.5%
COc1ccccc1N1CCN(C(=O)CCc2nnc3n(C)c(=O)c4sccc4n23)CC1 -10.2%
COc1ccc(S(=O)(=O)NCC(c2ccc(N(C)C)cc2)N2CCc3ccccc32)cc1 (centres undefined) -2.54%
COc1ccc(S(=O)(=O)N2CCC(c3ccncc3)CC2)cc1OC -18.2%
CCc1ccc(NC(=O)Cn2c(=O)n(Cc3nc(-c4ccccc4)no3)c(=O)c3cc4c(cc32)OCO4)cc1 -1.04%
CCCC(=O)N1CC(=O)Nc2ccc(Cl)cc2C1c1ccccc1 (centres undefined) 8.72%
CCOc1ccc(OCC)c(NC(=O)C2CCN(S(=O)(=O)c3cn(C)cn3)CC2)c1 1.07%
Cc1ccn2c(Nc3ccc(F)cc3)c(-c3ccccn3)nc2c1 -1.9%
